# Data taken from PubChem BioAssay AID504832 (National Center for Advancing Translational Sciences (NCATS), 2011).
# Screen size: about 310,000 compounds; about 18,000 (5.8%) were called active. Inconclusive means that the source gave no clear call. Such entries were picked first, then a sample of the others. Calls come from the whole dose curve; as a rule, active = well fitted inhibition curve with a large enough effect; inconclusive = small, poorly fitted or top-dose-only effect, or another doubt; inactive = no such curve, though single readings can be large or run the other way. Potencies of inconclusive entries are left out as doubtful fits.
# Test: Primary qHTS for delayed death inhibitors of the malarial parasite plastid, 48 hour incubation
# Conditions: P. falciparum luciferase growth in erythrocytes; series mostly up to 28.7 µM; activity change, negative = inhibition: at the top concentration
# Summary of the method: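 In quantitative HTS format, infected erythrocytes bearing luciferase-reporter parasites were treated for a single generation at 37 C. Luminescence after adding detection reagent served as the growth measure.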
# % is set by controls: 0 for no effect and ±100 for the full control effect; potency is the fitted concentration of half-maximal effect; tags give direction and shape of the fitted curve.
Compound,"activity change, negative = inhibition",Potency
O=C(N/N=C/c1ccccc1F)NC12CC3CC(CC(C3)C1)C2,inactive: 35.1%,
CCOC(=O)C1CCCN(C(=O)C(=O)Nc2ccc3nc4n(c(=O)c3c2)CCCCC4)C1 (configuration not stated),,"inconclusive [inhibitor, partial curve, poor fit]"
Cc1ccc(CSCC(=O)NCCCN2CCOCC2)cc1,inactive: 51.1%,
CC(C)c1ccccc1-n1c(SCC(=O)N2CCc3ccccc3C2)nc2ccccc2c1=O,,active: 1.47 µM
CC(C(=O)N1CCN(C(=O)c2ccco2)CC1)n1sc2ccccc2c1=O (configuration not stated),,"inconclusive [inhibitor, partial curve, poor fit]"
CCOC(=O)Cn1nnc2c(sc3nc4c(c(-c5ccc(Cl)cc5)c32)CCC4)c1=O,,"inconclusive [inhibitor, partial curve, poor fit]"
CCOC(=O)c1c(C(F)(F)F)cc(-c2ccc(F)cc2)nc1C,inactive: 4.32%,
CCn1c(SCC(=O)Nc2cc(C)ccc2C)nc2c(c1=O)SC(C)C2 (configuration not stated),,"inconclusive [inhibitor, single point]"
Cc1ccc(N(Cc2ccccc2)C(=O)c2cccc(S(=O)(=O)N3CCN(C)CC3)c2)cc1,,"inconclusive [inhibitor, partial curve]"
CC(C)CN(C(=O)COC(=O)Cc1c[nH]c2ccccc12)c1c(N)n(Cc2ccccc2)c(=O)[nH]c1=O,,"inconclusive [inhibitor, single point]"
CCOC(=O)C1=NNC(C(=O)c2ccc(C)cc2)C1c1ccc(OC)cc1 (configuration not stated),,active: 11.7 µM
O=C(Cc1ccccc1)NC(=S)Nc1ccc2oc(-c3ccccc3F)nc2c1,inactive: 94.5%,
CC(=O)N/C(=C\c1ccccc1)C(=O)OCC(=O)Nc1cc(S(=O)(=O)N(C)C)ccc1Cl,inactive: 27.1%,
Cc1ccc(C)c(-c2nnc(NC(=O)c3ccc([N+](=O)[O-])o3)o2)c1,,active: 9.28 µM
Cc1nn(CC(=O)NCCc2ccco2)c(=O)c2nn(-c3ccccc3)c(C)c12,inactive: 15.1%,
Cc1nc(CN2CCN(C(=O)CCc3nnc(Cc4c[nH]c5ccccc45)o3)CC2)cs1,,"inconclusive [inhibitor, partial curve, poor fit]"
Cc1cc(C)c2[nH]c(=O)c(C(c3nnnn3Cc3ccc4c(c3)OCO4)N3CCCCC3)cc2c1 (configuration not stated),inactive: -14.7%,
COC(=O)c1ccc(OCC2c3cc(OC)c(OC)cc3CCN2C(=O)C2CC2)cc1 (configuration not stated),,active: 11.7 µM
O=C(Nc1nccs1)[C@@H]1CCCN1S(=O)(=O)c1ccccc1F,,"inconclusive [inhibitor, partial curve, poor fit]"
Cc1cc(Nc2ccc(C)c(C)c2)c2ccccc2n1,,"inconclusive [inhibitor, single point]"
O=C(N/N=C/c1ccc([N+](=O)[O-])o1)c1cc2c(ccc3ccccc32)o1,,"inconclusive [inhibitor, full curve, poor fit]"
O=C(c1cn(-c2ccccc2)nc1-c1ccc(F)cc1)N1CCCCC1,,"inconclusive [inhibitor, partial curve]"
COc1cc(NC(=O)SC2=NCCS2)cc(OC)c1,,"inconclusive [inhibitor, full curve, poor fit]"

Compound,"activity change, negative = inhibition",Potency
CCCCCC(=O)N/N=C(\C)c1ccccn1,,active: 1.65 µM
COc1ccc(N2CCN(CCNC(=O)c3ccc4nc5ccccc5c(=O)n4c3)CC2)cc1,,"inconclusive [inhibitor, single point]"
CCOc1ccc2nc(Cl)c(C3CC(c4ccco4)=NN3S(C)(=O)=O)cc2c1 (configuration not stated),,"inconclusive [inhibitor, single point]"
COc1ccc(CN(Cc2cc3ccc(C)cc3[nH]c2=O)Cc2nnnn2C2CCCC2)cc1,,"inconclusive [inhibitor, partial curve, poor fit]"
CC1CCC(NC(=O)CN2C(=O)NC3(CCCCC3C)C2=O)CC1 (configuration not stated),,"inconclusive [inhibitor, partial curve, poor fit]"
COc1ccc(NS(=O)(=O)c2ccc3c(c2)N(C(C)=O)CC(C)S3)c(OC)c1 (configuration not stated),inactive: 4.71%,
Cn1c(N/N=C2\CCCc3ccccc32)nc2c1c(=O)n(Cc1ccc(F)cc1)c(=O)n2C,,"inconclusive [inhibitor, partial curve]"
COc1cc(C(=O)NCCc2ccc3c(c2)OCCO3)ccc1OCC(=O)N1CCOCC1,,"inconclusive [inhibitor, full curve, poor fit]"
CC(=O)N1CCc2c(sc(NC(=O)c3ccc4c(c3)OCCO4)c2C#N)C1,,"inconclusive [inhibitor, single point]"
O=C(c1cccs1)N1CCc2c([nH]c3ccccc23)C1c1ccccn1 (configuration not stated),,"inconclusive [inhibitor, single point]"
CC12CCC(=O)N1C(C(=O)NCCN1C(=O)S/C(=C\c3ccccc3Cl)C1=O)CS2 (configuration not stated),,"inconclusive [inhibitor, single point]"
O=C(c1ccccc1)c1ccc(C(=O)N2CCCC(C(F)(F)F)C2)cc1 (configuration not stated),,"inconclusive [inhibitor, full curve, poor fit]"
CC(C)(C)OC(=O)CNC(=O)c1[nH]cnc1C(=O)NC(c1ccccc1)c1ccccc1,,"inconclusive [inhibitor, partial curve, poor fit]"
O=[N+]([O-])c1ccc(/C=N/Nc2nc(N3CCCCCC3)nc(N3CCCCCC3)n2)o1,,active: 5.22 µM
CCCCn1c(SCC(=O)/C(C#N)=C(\C)N)nc2ccccc2c1=O,,"inconclusive [inhibitor, partial curve]"
CCc1ccccc1NC(=O)COC(=O)C1C2CC3OC(=O)C1C3C2 (configuration not stated),inactive: 35.3%,
COc1ccc(-c2noc(-c3ccccc3C(=O)Nc3cccnc3)n2)cc1OC,,active: 10.4 µM
Cc1nnc(C)n1/N=C/c1ccc(O)cc1,,"inconclusive [inhibitor, full curve, poor fit]"
CCc1ccc(C2=CC(c3cc(Br)ccc3F)n3ncnc3N2)cc1 (configuration not stated),,"inconclusive [inhibitor, single point]"
CCOc1ccccc1NC(=O)CN(C)S(=O)(=O)c1ccc2[nH]c(=O)oc2c1,inactive: 8.09%,
CCOc1ccc(Nc2nnc(SCc3nc4ccccc4c(=O)[nH]3)s2)cc1,inactive: 20.7%,
COc1cccc(C(=O)NCCSCc2ccccc2Cl)c1,,"inconclusive [inhibitor, partial curve]"
c1ccc(-c2ccccc2-c2nc(-c3ccncc3)no2)cc1,,"inconclusive [inhibitor, single point]"

Compound,"activity change, negative = inhibition",Potency
COc1cc(OC)cc(-c2nc3nc(C)c(CCC(=O)O)c(C)n3n2)c1,,"inconclusive [inhibitor, partial curve]"
Clc1cccc(C2Nc3cccc4cccc(c34)N2)c1Cl,,"inconclusive [inhibitor, partial curve]"
CCOC(=O)c1csc(-n2nc(C)cc2C(F)(F)F)n1,,"inconclusive [inhibitor, partial curve, poor fit]"
CN(C)/C=N/C(=S)Nc1ccccc1F,inactive: 42.3%,
O=[N+]([O-])c1ccc2cn[nH]c2c1,inactive: 17.4%,
Cn1cc(CN2CCC(n3nccc3NC(=O)c3ccccc3Cl)CC2)c2ccccc21,,active: 3.29 µM
COc1ccc(-c2cc([N+](=O)[O-])ccc2OCC(=O)N(C)CC(=O)Nc2ccc(C)cc2)cc1,,active: 6.57 µM
N#CC1(C#N)[C@@H](C(=O)C23CC4CC(CC(C4)C2)C3)C12CCOCC2,inactive: 3.6%,
CN1CCN(C(c2ccccc2)c2ccccc2)CC1,,"inconclusive [inhibitor, partial curve, poor fit]"
CN(C)CCCN(C(=O)COc1ccccc1)c1nc2c(Cl)cccc2s1,,"inconclusive [inhibitor, partial curve, poor fit]"
C/C(N)=C(/C#N)C(=O)CSc1nnc(-c2ccccc2Br)o1,inactive: 227%,
Fc1ccc(-c2nn(-c3ccccc3)cc2CNCc2ccccc2)cc1,,"inconclusive [inhibitor, single point]"
COc1ccc(C(=O)CN2C(=O)NC3(CCCc4ccccc43)C2=O)c(OC)c1 (configuration not stated),,"inconclusive [inhibitor, single point]"
CSc1nc(N)c(C#N)c(-c2ccccc2Cl)c1C#N,inactive: 3.07%,
COC(=O)[C@@H]1CC2=CC(=O)CC[C@]2(C)[C@@]23O[C@@H]2C[C@@]2(C)[C@@H](CC[C@@]24CCC(=O)O4)[C@H]13,,"inconclusive [inhibitor, single point]"
Oc1ccccc1-c1nnc(COc2ccc(Cl)cc2Cl)o1,inactive: 32.9%,
CCC(C)(C)NC(=O)C(c1ccc(OC)cc1)N(Cc1ccccc1)C(=O)CCC(=O)Nc1cc(C)on1 (configuration not stated),,"inconclusive [inhibitor, partial curve]"
CC(NC(=O)c1ccc(Cl)cc1)c1nnc(SCC(=O)NC2=NCCS2)n1C (configuration not stated),inactive: 3.65%,
COC(=O)C1=C(C(=O)OC)SC2(S1)C(C(=O)OC)=C(C(=O)OC)SC1=C2c2cccc(C)c2NC1(C)C,,"inconclusive [inhibitor, partial curve]"
O=C(CSc1ncn[nH]1)NC12CC3CC(CC(C3)C1)C2,,"inconclusive [inhibitor, single point]"
Cc1ccc(-c2nc3[nH]c(=O)cc(NC(=O)c4cccs4)n3n2)cc1,,"inconclusive [inhibitor, full curve]"
